In all, about 39,000 compounds went through this assay and about 220 (0.56%) showed activity. Some of the results follow.
These compounds were tested on Escherichia coli K-12 BW25113 (assay: relative growth (OD600 normalised to plate interquartile mean) (fraction); higher = less growth inhibition, active = 0.2 or less). Conditions: 50 µM; LB; incubation time: overnight (16-24 h).
`CCCCCCCCCCCCCCCC[N+](C)(C)C` was tested, and the relative growth was active: 0.0755.
For `C[C@@H]1CCCCO[C@@H](CN(C)CC2CCCCC2)[C@H](C)CN([C@H](C)CO)C(=O)c2cc(NC(=O)c3ccncc3)ccc2O1`, the relative growth was inactive: 1.01.
In the case of `CC(C)NC(=O)[C@@H]1c2ccccc2C(=O)N(Cc2cc(C(F)(F)F)cc(C(F)(F)F)c2)[C@H]1c1ccc(CO)cc1`, the relative growth is reported as inactive: 0.954.
With `Cc1ccc(S(=O)(=O)Nc2ccc3c(c2)CC(=O)N([C@H](C)CO)C[C@H](C)[C@@H](CN(C)C(=O)NC(C)C)O3)cc1` the relative growth was inactive: 1.01.
For `COc1ccccc1[C@@H](NC(=O)C1CCN(Cc2ccc(Oc3ccccc3)cc2)CC1)c1ccccn1`, the relative growth was inactive: 1.
In the case of `CC(=O)OC1CC2CC(OC(C)=O)C3(C)C(CCC4(C)C(c5ccoc5)OC(OC(C)=O)C5OC543)C2(C)C(OC(C)=O)C1` (stereo unspecified), the relative growth is reported as inactive: 1.09.
With `C[C@@H]1CN([C@H](C)CO)C(=O)c2cc(NC(=O)Nc3ccc(F)cc3)ccc2O[C@@H](C)CCCCO[C@@H]1CN(C)C(=O)NC1CCCCC1` the relative growth was inactive: 1.01.
For `C[C@@H]1CCCCO[C@H](CN(C)C(=O)c2ccccc2)[C@H](C)CN([C@@H](C)CO)C(=O)c2cc(NS(=O)(=O)c3ccc(Cl)cc3)ccc2O1`, the relative growth was inactive: 1.
With `COc1ccc(NC(=O)Nc2ccc3c(c2)C(=O)N([C@@H](C)CO)C[C@H](C)[C@H](CN(C)Cc2ccncc2)OCCCC[C@H](C)O3)cc1` the relative growth was inactive: 0.997.
With `C[C@@H]1CN([C@@H](C)CO)C(=O)Cc2cc(NC(=O)CCN3CCOCC3)ccc2O[C@@H]1CN(C)S(=O)(=O)c1ccccc1` the relative growth was inactive: 1.01.
With `C[C@@H]1CN([C@H](C)CO)C(=O)c2cccc(NS(=O)(=O)c3cccs3)c2O[C@@H]1CN(C)CC1CC1` the relative growth was inactive: 1.
For `C[C@@H]1CCCCO[C@@H](CN(C)Cc2ccncc2)[C@@H](C)CN([C@@H](C)CO)C(=O)c2cc(NC(=O)CCC(F)(F)F)ccc2O1`, the relative growth was inactive: 1.01.
With `CN1C(=N)NC(=O)/C1=C/c1cccnc1` the relative growth was inactive: 1.01.
For `Clc1ccc2nncn2n1`, the relative growth was inactive: 1.02.
In the case of `CC(C)CC#Cc1cnc2c(c1)C(=O)N([C@@H](C)CO)C[C@H](C)[C@@H](CN(C)C(=O)CN1CCOCC1)O2`, the relative growth is reported as inactive: 0.975.
For `NC(=O)C1(N2CCCCC2)CCN(CCCC(=O)c2ccc(F)cc2)CC1`, the relative growth was inactive: 1.11.
For `Cc1ccc(S(=O)(=O)N(C)C[C@@H]2OCCCC[C@@H](C)Oc3ccc(NC(=O)Nc4ccc5c(c4)OCO5)cc3C(=O)N([C@H](C)CO)C[C@H]2C)cc1`, the relative growth was inactive: 1.01.
`COc1ccc(S(=O)(=O)Nc2ccc3c(c2)C(=O)N([C@H](C)CO)C[C@H](C)[C@@H](CN(C)Cc2ccc(Cl)c(Cl)c2)O3)cc1` was tested, and the relative growth was inactive: 1.02.
With `COc1c(O[C@@H]2O[C@H](CO)[C@@H](O)[C@H](O)[C@H]2O)cc2oc(-c3ccc(O)c(O)c3)c(O)c(=O)c2c1O` the relative growth was inactive: 0.999.
With `COc1ccc(S(=O)(=O)Nc2cccc3c2O[C@@H](CN(C)S(C)(=O)=O)[C@@H](C)CN([C@H](C)CO)C3=O)cc1` the relative growth was inactive: 0.892.
In the case of `COc1ccc(NC(=O)N(C)C[C@@H]2Oc3c(NC(=O)C4CCOCC4)cccc3C(=O)N([C@@H](C)CO)C[C@@H]2C)cc1`, the relative growth is reported as inactive: 0.981.
`O=C1CN(S(=O)(=O)Cc2ccccc2)C[C@@H]2[C@@H](c3ccc(C#Cc4cccc(F)c4)cc3)[C@H](CO)N12` was tested, and the relative growth was inactive: 0.998.
With `COc1ccc(S(=O)(=O)N[C@H]2C=C[C@@H](CC(=O)N3CCC(Cc4ccccc4)CC3)O[C@@H]2CO)cc1` the relative growth was inactive: 1.
For `C[C@@H]1CCCCO[C@H](CN(C)C(=O)Nc2cccc3ccccc23)[C@@H](C)CN([C@H](C)CO)C(=O)c2cc(NC(=O)CCCCCC(=O)Nc3ccccc3N)ccc2O1`, the relative growth was inactive: 1.01.
`CCc1nc2ccc(C(=O)Nc3cc(-c4ccccc4)ccc3OC)cn2c1N(C)C(=O)c1cccc(OC)c1` was tested, and the relative growth was inactive: 1.04.
With `C[C@@H]1CN([C@H](C)CO)C(=O)Cc2cc(NC(=O)C3CCCCC3)ccc2O[C@H]1CN(C)C(=O)Nc1ccc(C(F)(F)F)cc1` the relative growth was inactive: 0.974.
With `C[C@@H]1CCCCO[C@@H](CN(C)C(=O)Nc2ccc3c(c2)OCO3)[C@@H](C)CN([C@H](C)CO)C(=O)c2cc(NS(=O)(=O)c3cccs3)ccc2O1` the relative growth was inactive: 0.99.
With `CCCCCN(C)CCC(O)(P(=O)([O-])O)P(=O)(O)O.O.[Na+]` the relative growth was inactive: 0.941.
In the case of `C[C@@H]1CN([C@@H](C)CO)C(=O)c2cc(NC(=O)Nc3ccc4c(c3)OCO4)ccc2O[C@@H](C)CCCCO[C@H]1CN(C)Cc1ccc(C(=O)O)cc1`, the relative growth is reported as inactive: 0.997.
`C[C@H](CO)N1C[C@H](C)[C@H](CN(C)S(=O)(=O)c2cn(C)cn2)Oc2ccc(NC(=O)CCC(F)(F)F)cc2C1=O` was tested, and the relative growth was inactive: 0.997.
In the case of `N=C(N)NCCN1CCCCCCC1`, the relative growth is reported as inactive: 1.01.
In the case of `CCCNC(=O)N(C)C[C@H]1Oc2cc(-c3ccc(C)cc3)ccc2S(=O)(=O)N([C@H](C)CO)C[C@@H]1C`, the relative growth is reported as inactive: 0.993.
`C[C@@H]1CN([C@@H](C)CO)C(=O)c2cc(NC(=O)Nc3ccccc3)ccc2O[C@@H]1CN(C)Cc1ccc(C(=O)Nc2ccccc2N)cc1` was tested, and the relative growth was inactive: 0.974.
In the case of `Cl.Cl.NCCc1c[nH]cn1`, the relative growth is reported as inactive: 1.19.
For `CC(=O)Nc1c(C)[nH]c2ncnn2c1=O`, the relative growth was inactive: 1.
`Cc1cc(C(=O)Nc2cccc3c2O[C@H](CN(C)Cc2ccc(C(=O)O)cc2)[C@H](C)CN([C@H](C)CO)C3=O)n(C)n1` was tested, and the relative growth was inactive: 1.
`Nc1nnc(C(=O)N2CCCCC2)[nH]1` was tested, and the relative growth was inactive: 0.981.
With `COc1ccc(-c2nc(N3CCOCC3)c3sc(CN(C)c4ncc(C(=O)NO)cn4)cc3n2)cn1` the relative growth was inactive: 0.784.
With `C[C@@H]1CN([C@H](C)CO)C(=O)c2cccc(NC(=O)Nc3ccc4c(c3)OCO4)c2O[C@H]1CN(C)S(C)(=O)=O` the relative growth was inactive: 1.01.
With `Cc1noc(C)c1NC(=O)Nc1ccc2c(c1)CC(=O)N([C@@H](C)CO)C[C@H](C)[C@H](CN(C)S(=O)(=O)c1cn(C)cn1)O2` the relative growth was inactive: 1.01.
`O=C(C[C@@H]1C[C@H]2c3cc(NC(=O)Nc4ccc(C(F)(F)F)cc4)ccc3O[C@H]2[C@H](CO)O1)NCCc1ccccc1` was tested, and the relative growth was inactive: 1.03.
In the case of `C[C@H](CO)N1C[C@H](C)[C@@H](CN(C)S(=O)(=O)c2ccc(F)cc2)Oc2ncc(-c3ccncc3)cc2C1=O`, the relative growth is reported as inactive: 1.01.
For `C[C@@H]1CN([C@@H](C)CO)C(=O)Cc2cc(NC(=O)Cn3cnnn3)ccc2O[C@H]1CN(C)C(=O)Nc1ccc2c(c1)OCO2`, the relative growth was inactive: 0.999.
`C[C@@H]1CN([C@H](C)CO)S(=O)(=O)c2ccc(-c3cncnc3)cc2O[C@@H]1CN(C)C(=O)Cc1cccnc1` was tested, and the relative growth was inactive: 0.987.
`CC(C)NC(=O)Nc1ccc2c(c1)CC(=O)N([C@H](C)CO)C[C@@H](C)[C@H](CN(C)Cc1ccc(-c3ccccc3)cc1)O2` was tested, and the relative growth was inactive: 1.01.
For `O=C(Nc1nccs1)[C@H]1[C@H](CO)[C@H]2Cn3c(cccc3=O)[C@H]2N1C(=O)C1CC1`, the relative growth was inactive: 1.01.
With `Cc1ccc(S(=O)(=O)N(C)C[C@H]2Oc3ccc(NC(=O)c4ccncc4)cc3C(=O)N([C@@H](C)CO)C[C@H]2C)cc1` the relative growth was inactive: 0.992.
`C[C@@H]1CN([C@@H](C)CO)C(=O)CCCn2nncc2CO[C@H]1CN(C)Cc1cccc2c1OCCCO2` was tested, and the relative growth was inactive: 0.999.
With `COc1ccc(C#Cc2ccc3c(c2)[C@]2(C(=O)N3)[C@H](c3ccccc3OCCO)N3[C@H](c4ccccc4)[C@H](c4ccccc4)OC(=O)[C@H]3[C@@H]2C(=O)NC[C@H](O)c2ccccc2)cc1` the relative growth was inactive: 1.07.
In the case of `C[C@@H]1CN([C@@H](C)CO)C(=O)Cc2cc(NC(=O)Nc3ccc(C(F)(F)F)cc3)ccc2O[C@@H]1CN(C)C(=O)Nc1cccc2ccccc12`, the relative growth is reported as inactive: 0.998.
In the case of `C[C@@H]1CN([C@H](C)CO)C(=O)c2cc(NC(=O)Nc3ccc(C(F)(F)F)cc3)ccc2O[C@H]1CN(C)Cc1ccc(Oc2ccccc2)cc1`, the relative growth is reported as inactive: 1.
With `N#Cc1ccc(Oc2ccccn2)cc1` the relative growth was inactive: 1.02.
`C[C@@H]1CN([C@@H](C)CO)C(=O)c2cc(C3=CCCC3)cnc2O[C@@H]1CN(C)C(=O)c1ccc2c(c1)OCO2` was tested, and the relative growth was inactive: 1.04.
With `Cc1noc(C)c1S(=O)(=O)Nc1ccc2c(c1)CC(=O)N([C@H](C)CO)C[C@H](C)[C@H](CN(C)S(=O)(=O)c1ccccc1)O2` the relative growth was inactive: 1.01.
For `NC(=S)Nc1nc2ccccc2[nH]c1=O`, the relative growth was inactive: 0.968.
In the case of `COc1cc(C2c3cc4c(cc3C(OC3OC5COC(c6cccs6)OC5C(O)C3O)C3COC(=O)C23)OCO4)cc(OC)c1O` (stereo unspecified), the relative growth is reported as inactive: 1.16.
In the case of `C[C@@H]1CN([C@H](C)CO)C(=O)c2cc(NC(=O)Nc3ccc(C(F)(F)F)cc3)ccc2O[C@@H](C)CCCCO[C@H]1CN(C)C(=O)C1CCCCC1`, the relative growth is reported as inactive: 1.06.
`CCCC#Cc1ccc2c(c1)O[C@H](CN(C)C(=O)c1cnccn1)[C@H](C)CN([C@H](C)CO)S2(=O)=O` was tested, and the relative growth was inactive: 1.03.
For `Cc1noc(C)c1S(=O)(=O)Nc1ccc2c(c1)CC(=O)N([C@@H](C)CO)C[C@H](C)[C@@H](CN(C)C(=O)Nc1ccccc1)O2`, the relative growth was inactive: 0.982.
For `COc1ccc(S(=O)(=O)N(C)C[C@@H]2OCCCC[C@@H](C)Oc3ccc(NC(=O)c4ccccc4)cc3C(=O)N([C@H](C)CO)C[C@@H]2C)cc1`, the relative growth was inactive: 1.02.
For `CC(C)(C)N1CC=C[C@@]23O[C@@H]4/C=C\CCCOC(=O)[C@@H]4[C@H]2C(=O)N(CCO)[C@@H]3C1=O`, the relative growth was inactive: 0.981.

— the supplement of paper PMC9446081
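Also: static incubation at 37 °C against the wild-type strain, values averaged over two biological replicates.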
